Here are results for 21 variants from the RNAGym collection of RNA variant scans (doi:10.7554/elife.90254).

Read counts are not given, so values of variants with three or more changes are uncertain.

Sequences and labels used below:
B1: OR4K15 (parent)
chain: GUUAACGGUCAUAGGCCAUGGAAACUAGGAGCACCAUUUCGCUGCCAGUGAAGAAAUGAACAAAGAAAAUCUGGGCCAGGCAGGCAUCAAAAGAAAUAGUCUUGCGCUCAACCAGAAAGUCUGUAAUCAUUUUAAGGGUA

The variants in the data set derive from B1. Description: self-cleavage, relative activity (ratio to wild type); higher = more cleavage; in vitro, sequencing; the parent is a self-cleaving ribozyme.
As for GUUAACGGUCACAGGCCAUGGAAACUAGGAGCACCAUCUCGCUGCCAGUGAAGAAAUGAACAAAGAAAAUCCGGGCCAGGCAGGCAUCAAAAGAAACAGUCUUGCGCUCAACCAGAAAGUCUGUAAUCAUUUUAAGGGUA, the self-cleavage came to 0.46.

Turning to GUUAACGGUCACAGGCCAUGGAAACUAGGAGCACCACUUCGCUGCCAGUGAAGAAAUGAACAAAGAAAAUCUGGGCCAGGCAGGCAUCAAAAGAAAUAGUCUUGCGCUCAACCAGAAAGUCUGCAAUCAUUUUAAGGGUA, the self-cleavage came to 1.37.

For the variant GUUAACGGUCAUCGGCCAUGGAAACUAGGAGCACCAUUUCGCUGCCAGUGAAGAAAUGAACAAAGAAAAUCUGGGCCAGGCAGGCACCAAAAGAAAUAGUCUUGCGCCCAACCAGAAAGUCUGUAAUCAUUUUAAGGGCA, the self-cleavage came to 0.02. Consider GUUAACGGUCACAGGCCAUGGAAACUAGGAGCACCAUUUCGCUGCCAGUGAAGAAACGAACAAAGAAAAUCUGGGCCUGGCAGGCGUCAAAAGAAAUUGUCUUGCGCUCAACCAGAAAGUCUGUAAUCAUUUUAAGGGUA, for which the self-cleavage was determined as 0.28. The same measure for GUUAACGGUCACAGGCCAUGGAAACUAGGAGCACCAUUUCGCUGCCAGCGAAGAAGUGAACAAAGAAAAUCUGGGCCAAGCAGGCAUCAAAAGAAGUAGUCUUGCGCUCGACCAGAAAGUCUGUAAUCAUUUUAAGGGUA: 0.01; for GUUAACGGUCACAGGCCAUGGAAACUAGGAGCACCAUUCCGCUGCCAGUGAGGAAAUGAACAAAGAAAAUCUGGGCCAGGCAGGCAUCAAAAGAAAUAGUCUUGCGCUCAACCAGAAAGUCUGUAAUCAUUUUAAGGGUA: 2.1; for GUUAACGGUCACAGGCCAUGGAAACUAGGAGCACCACUUCGCUGCCAGUGAAGGAAUGAACAAAGAAAAUCUGGGCCAGGCAGGCAUCAAAAGAAAUAGUCUUGCGCUCAACCAGGAAGCCCGUAAUCAUUUUAAGGGUA: 0.1.

Take GUUAACGGUCAUCGGCCAUGGAAACUAGGAGCACCAUUUCGCCGCCAGCGAAGAAAUGAACAAAGAAAAUCUGGGCCAGGCAGGCACCAAAAGAAAUAGUCUUGCGCUCAACCAGAAAGUCUGUAAUCAUUUUAAGGGUA: the self-cleavage turned out to be 1.09.

For GUUAACGGUCACAGGCCAUGGAAACUAGGAGCACCAUUUCGCGGCCAGUGAAGAAAUGAACAAAGAAAAUCUGGGCCAGGCAGGCAUCAAAAGAAAUAGUCUUGCGCUCAACCAGAAAGUCUGUAGUCAUUUUAAGGGUA, the self-cleavage is 1.81.

With GUUAACGGUCACAGGCCAUGGAAACUAGGAGCACCAUUUCGCUGCCAGUGAAGAAAUGAACAAAGAAAAUCUGGGCCAGGCAGGCAGCAAAAGAAAUAGUCUUGCGCUCAGCCAGAAAGUCUGUAAUCAUUUUAAGGGUA, the self-cleavage is 0.04. The same measure for GUUAACGGUCACAGGCCAUGGAAACUAGGAGCACCAUUUCGCUGCCAGUGAAGAAAUGAACAAAGAAAAUCUGGGCCAGGCAGGCAUCAAAAGAAAUAGUCCUGCGCUCAACCAGAAAGUCCGUAACCAUUUUAAGGGUA: 1.6. As to GUUAACGGUCACAGGCCACGGAAACUAGGAGCACCAUUUCGCUGCCAGUGAAGAAAUGAACAAAGAAAAUCUGGGCCUGGCAGGCAUCAAAAGAAAUAGUCUUGCGCUCAACCAGAAAGUCUGUAAUCAUUUUAAGGGUA, the self-cleavage stood at 0.14.

With GUUAACGGUCACAGGCCAUGGAAACUAGGAGCACCAUUUCGCUGCCAGUGAAGAAAUGAACAAAGAAAAUCUGGACCAGGCUGGCAUCAAAAGAAAUAGUCUUGCGCUCAACCAGAAAGUCUGUAAUCAUUUUAAGGGUA, the self-cleavage was found to be 0.13. The same measure for GUUAACGGUCAGGGGCCAUGGAAACUAGGAGCACCAUUUCGCUGCCAGUGAAGAAACGAACAAAGAAAAUCUGGGCCAGGCAGGCAUCAAAAGAAAUAGUCUUGCGCUCAACCAGAAAGUCUGUAAUCAUUUUAAGGGUA: 1.02; for GUUAACGGUCACAGGCCACGGAAACUAGGGGCACCAUUUCGCUGCCAGUGAAGAAAUGAACAAAGAAAGUCUGGGCCAGGCAGGCAUCAAAAGAAAUAGUCUUGCGCUCAGCCAGAAAGUCUGUAAUCAUUUUAAGGGUA: 0.09.

As for GUUAACGGUCAUCGGCCAUGGAAACUAGGAGCACCAUUUCGCUGCCAGUGAAGAAAUGAACAAAGAAAAUCUGGGCCAGGCGGGCAUCUAAAGAAAUAGUCUUGCGCUCAACCUGAGAGUCUGUAAUCAUUUUAAGAGUA, the self-cleavage turned out to be 0.1. The same measure for GUUAACGGUCAUGGGCCGUGGAAACUAGGGGCACCAUUUCGCUGCCAGUGAAGAAAUGAACAAAGAAAAUCUGGGCCAGGCAGGCAUCAAAAGAAAUAGUCUUGCGCUCAACCAGAAAGUCUGUAAUCAUUUUAAGGGUA: 0.91; for GUUAACGGUCACAGGCCAUGGAAACCAGGAGCACCAUUUCGCUGCCAGUGAAGAAAUGAACGAAGAAAAUCUGGGCCAGGCAGGAAUCAAAAGAAAUAGUCUUGCGCUCAACCAGAAAGUCUGUAAUCAUUUUAAGGGUA: 0.55; for GUUAACGGUCACAGGCCAUGGAAACUAGGAGCACCAUUUCGCCGCCAGUGAAGGAAUGAACAAAGAAAAUCUGGGCCAGACAGGCAUCAAAAGAAAUAGUCUUGCGCUCAACCAGAAAGUCUGUAAUCAUUCUAAGGGUA: 0.21. Turning to GUUAACGGUCAUCGGCCAUGGAAACUUGGAGCACCAUUUCGCUGCCAGUGAAGAAAUGAACAAAGAAAAUCUGGGCCAGGCAGGCAUCAAAAGAAAUAGUCUUGCGCUCAACCGGAAAGUCUGUAAUCAUUUUAAGGGUA, the self-cleavage was 1.08. The same measure for GUUAACGGUCACAGGCCAUGGAAACUAGGAGCACCAUCUCGCUGCCAGUGAAGAAAUGAACAAAGAAAGUCUGGGCCAGGCAGGCAUCAAAAGAAAUAGUCCUGCGCUCAACCAGAAAGUCUGUAAUCAUUUUAAGGGUA: 1.44.
